From PubChem BioAssay AID463173 (ICCB-Longwood Screening Facility, Harvard Medical School, 2010)
Out of some 52,000 compounds screened, about 4,300 (8.3%) were called active. Cut-off read from the data, not from the text of the source: active = survival mostly below about 52% (no sharp cut-off); inactive = mostly above about 56%. This is one part of the list.

What follows are compounds tested on DeltatarO mutant (assay: S. aureus survival, RN4220 and DeltatarO strains – OD600, teichoic acid synthesis inhibitors, primary screen (AID 463173)). Conditions: S. aureus RN4220 wild type/DeltatarO growth, OD600, 18 h, hits give low values, screened at 18.75 µg/mL (by protocol).
`COc1cccc(N2CCN(C(=O)C3CCC(CNS(=O)(=O)c4ccc(Br)s4)CC3)CC2)c1` (centres undefined) was tested, and the survival was inactive: 78%.
`CCS(=O)(=O)N1CC(=O)N(c2ccccc2C)C(C)(C(=O)NC2CCCCC2)C1` (centres undefined) was tested, and the survival was inactive: 84%.
In the case of `COCCCNC(=O)Cn1c(=O)n(-c2ccc(C)cc2)c(=O)c2c1c1cc(C)ccc1n2C`, the survival is reported as inactive: 77%.
In the case of `COc1ccc2c(c1)CCN(Cc1cc3sccc3n1CC1CCCCC1)C2`, the survival is reported as inactive: 71%.
With `COc1ccc(CNC(=O)Nc2cn(CC(C)C)c(=O)c3ccccc23)c(OC)c1` the survival was inactive: 67%.
For `Cc1cc(C)cc(NC(=O)C2CCN(S(=O)(=O)c3cccc4nonc34)CC2)c1`, the survival was inactive: 83%.
With `Cc1nc2sccn2c1-c1csc(Nc2cccc(Cl)c2C)n1` the survival was active: 15%.
`CCc1ccc(CNC(=O)c2ccc(CSc3nc4ccncc4n3Cc3ccccc3)cc2)cc1` was tested, and the survival was inactive: 78%.
In the case of `CCC(Oc1ccccc1)C(=O)Nc1nnc(S(=O)(=O)Nc2ccccc2)s1` (centres undefined), the survival is reported as active: 40%.
In the case of `COCCNC(=O)CCC(=O)NNc1nc2ccccc2c2nc(-c3ccccc3)nn12`, the survival is reported as inactive: 76%.
`CCOc1ccc(NC(=O)CSc2ncc3c(n2)-c2ccccc2N(C)S3(=O)=O)cc1` was tested, and the survival was inactive: 75%.
With `Cc1ccc(NC(=O)N2CCC(n3c(C)nc4cccnc43)CC2)c(Cl)c1` the survival was inactive: 80%.
For `Clc1ccccc1-c1nc(Nc2ccccc2)nc2ccc(Br)cc12`, the survival was active: 47%.
With `Cc1ccc(NC(=O)c2cc(S(=O)(=O)N3CCOCC3)c(Cl)cc2Cl)cc1` the survival was inactive: 68%.
For `CCOC(=O)C1CCCN(S(=O)(=O)c2ccc3[nH]c(=O)ccc3c2)C1` (centres undefined), the survival was inactive: 91%.
`Cc1ccc(S(=O)(=O)NCc2nc3nc(C)cc(C)n3n2)c(C)c1` was tested, and the survival was inactive: 125%.
With `CCN1c2ccccc2-c2nc(SCC(=O)Nc3ccc(C)c(Cl)c3)ncc2S1(=O)=O` the survival was active: 25%.
With `CCOC(=O)c1ccccc1NC(=O)CSc1nc2ncccc2[nH]1` the survival was inactive: 78%.
With `Cc1ccc(C)c(N(C)C(=O)C2CCN(S(=O)(=O)c3cccc4nsnc34)CC2)c1` the survival was inactive: 99%.
For `COc1ccc(-c2nnn3c2nc(N2CCCC(C)C2)c2ccccc23)cc1` (centres undefined), the survival was active: -3%.
In the case of `CC(=O)c1cc(C(=O)Nc2cccc(C)c2)c2ccccn12`, the survival is reported as inactive: 88%.
In the case of `COc1ccc(N2CCN(C(=O)CCS(=O)(=O)c3cc4c(cc3Cl)NC(=O)CO4)CC2)cc1`, the survival is reported as inactive: 87%.
`COC(=O)CCc1sc(Nc2ccc(OC)cc2)nc1-c1ccc(OC)cc1` was tested, and the survival was inactive: 55%.
`Cc1ccccc1NC(=O)CC1C(=O)NCCN1C(=O)c1cccc(Cl)c1` (centres undefined) was tested, and the survival was inactive: 64%.
`CC(=O)c1ccc(N2CCN(C(=O)NCc3noc4ccc(C)cc34)CC2)cc1` was tested, and the survival was inactive: 45%.
In the case of `CCn1c2ccccc2c2cc(NC(=O)COC)ccc21`, the survival is reported as active: 43%.
`Cc1ccc(N(C(=O)Cn2nnc3ccccc32)C(C(=O)NCc2ccco2)c2cccnc2)cc1C` (centres undefined) was tested, and the survival was inactive: 65%.
In the case of `CCNC(=O)CCSc1nnc(-c2ccccc2C)o1`, the survival is reported as inactive: 89%.
For `CCCC(=O)NCCc1ccc(F)cc1`, the survival was inactive: 119%.
With `CCN(C(=O)Cc1c(C(=O)O)[nH]c2ccccc12)c1ccc(OC)cc1` the survival was inactive: 65%.
`CCc1ccc(CN(C(=O)c2nc(SC)ncc2Cl)C2CCS(=O)(=O)C2)cc1` (centres undefined) was tested, and the survival was inactive: 71%.
`CCC(=O)N1c2ccccc2CC1C(=O)N1CCN(c2ccccc2)CC1` (centres undefined) was tested, and the survival was inactive: 75%.
For `Cc1ccc(Cl)cc1NC(=O)c1ccc(-c2nc(CSc3ccccc3)c(C)o2)cc1`, the survival was inactive: 79%.
With `CC(C)Cc1nn2c(=O)cc(COC(=O)c3ccc(NC(=O)c4cccs4)cc3)nc2s1` the survival was inactive: 122%.
For `Cc1ccc2c(CNCCc3ccc(Cl)cc3)c(C(=O)O)n(Cc3ccc(F)cc3)c2c1`, the survival was active: 8%.
In the case of `CCOC(=O)c1ccc(NC(=O)CC2C(=O)N(c3ccccc3)C(=O)N2Cc2cccs2)cc1` (centres undefined), the survival is reported as inactive: 65%.
For `Cc1ccc(S(=O)(=O)c2[nH]c(-c3ccccc3)nc2SCC(=O)O)cc1`, the survival was inactive: 78%.
`COc1ccc(N2CCN(CC(O)COc3ccc(C(C)(C)C)cc3)CC2)cc1` (centres undefined) was tested, and the survival was inactive: 84%.
`O=c1c2sc3ccccc3c2n(Cc2ccccc2)c(=O)n1Cc1ccccc1` was tested, and the survival was inactive: 114%.
For `CCOc1ccc(CNC(=O)c2ccc3nc(Cc4ccc(OC)cc4)oc3c2)cc1OC`, the survival was inactive: 69%.
With `CCOC(=O)C1CCN(C(=O)C2COc3ccccc3C2)CC1` (centres undefined) the survival was inactive: 72%.
`O=C(c1cc2ccccc2oc1=O)N(Cc1cccc(Cl)c1)C1CCS(=O)(=O)C1` (centres undefined) was tested, and the survival was inactive: 137%.
For `Cc1ccc(CN2CCSc3ccc(C(=O)N4CCN(c5cccc(C)c5C)CC4)cc32)cc1`, the survival was active: 27%.
In the case of `COc1ccc(-c2cnc(C)o2)cc1S(=O)(=O)Nc1ccc(C)c(F)c1`, the survival is reported as inactive: 67%.
`O=S(=O)(NCCc1csc(-c2ccc(F)cc2)n1)c1ccc(Cl)cc1` was tested, and the survival was inactive: 77%.
In the case of `O=c1c2c3c(sc2nnn1Cc1ccc(Br)cc1)CCCC3`, the survival is reported as active: 37%.
In the case of `CCOc1ccccc1NC(=O)Cn1c(=O)ccc2cc(S(=O)(=O)N3CCC(C)CC3)ccc21`, the survival is reported as inactive: 55%.
With `CCOC(=O)c1ccc(NC(=O)CCc2c(C)nc3c(c(C)nn3C)c2C)cc1` the survival was inactive: 93%.
For `COc1cc(C(Nc2ccc(S(=O)(=O)NCC3CCCO3)cc2)C(=O)NC(C)(C)C)cc(OC)c1OC` (centres undefined), the survival was inactive: 109%.
`COc1ccc(CCC(=O)NCc2ccc3c(c2)CCN3C(=O)c2ccccc2)cc1` was tested, and the survival was inactive: 79%.
`CCC(Sc1nc(-c2ccc(F)cc2)nc2c1Cc1c(CO)cnc(C)c1O2)C(=O)Nc1ccc(F)cc1` (centres undefined) was tested, and the survival was inactive: 64%.
With `COc1c(Cl)cc(C(=O)N(Cc2ccccc2F)C2CCS(=O)(=O)C2)cc1Cl` (centres undefined) the survival was inactive: 82%.
For `CCS(=O)(=O)N1CCc2cc(C(=O)N3CCN(c4ccccc4OC)CC3)ccc21`, the survival was inactive: 98%.
`CC(C)(C)OC(=O)N1CCc2nc(N3CCN(c4ncccn4)CC3)ncc2C1` was tested, and the survival was inactive: 89%.
With `COc1ccc2cc(C#N)c(N3CCN(Cc4nnnn4CCC(C)C)CC3)nc2c1` the survival was inactive: 98%.
For `c1ccc(CN2CCN(CCN3CCCCC3)CC2)cc1`, the survival was inactive: 67%.
With `Cc1ccc(-c2onc(C)c2C)cc1S(=O)(=O)N1CCOc2ccc(Cl)cc21` the survival was inactive: 82%.
`COc1ccc(-n2c(SCC(N)=O)nc3c(oc4ccccc43)c2=O)cc1` was tested, and the survival was inactive: 92%.
With `CC(=O)N1CCc2c(sc3c2c(=O)n(Cc2ccccc2)c(=O)n3Cc2ccccc2F)C1` the survival was inactive: 85%.
In the case of `CC(C)CN1CCc2nc(Nc3ccc(F)cc3F)ncc2C1`, the survival is reported as inactive: 92%.
`COc1cc(/C=C(\C#N)c2nc3ccccc3[nH]2)ccc1OCc1ccccc1F` was tested, and the survival was inactive: 50%.
For `Cc1cc(C)cc(NC(=O)N2CCC(CN3CCCCCC3)CC2)c1`, the survival was inactive: 90%.
With `CCOc1ccc2nc(NC(=O)c3nc(SCc4ccccc4C)ncc3Cl)sc2c1` the survival was inactive: 87%.
With `CCCSc1ncc(Cl)c(C(=O)Nc2c(C(=O)c3ccc(C)cc3)oc3ccccc23)n1` the survival was inactive: 56%.
With `CCC(=O)N1c2ccc(S(=O)(=O)CCC(=O)N3CCN(c4cc(C)ccc4C)CC3)cc2CC1C` (centres undefined) the survival was inactive: 85%.
With `COc1ccc(C(CNC(=O)c2ccc(F)cc2)N2CCCC2)cc1` (centres undefined) the survival was inactive: 96%.
With `Cc1c(CCNC(=O)c2ccc(Br)o2)sc2nc(-c3ccc(Cl)cc3)nn12` the survival was inactive: 75%.
In the case of `Cc1ccc(C(=O)N2CCCCC2)cc1NC(=O)c1nsc2ccccc12`, the survival is reported as active: -4%.
In the case of `COc1ccc(S(=O)(=O)N2CCC(N3CCN(Cc4ccc(F)cc4)C(=O)C3=O)CC2)cc1`, the survival is reported as inactive: 75%.
`CN(C)CCNCc1cc2c(-c3cccc(F)c3)nn(-c3ccccc3)c2[nH]c1=O` was tested, and the survival was inactive: 99%.
With `O=C(Nc1ccccc1C(F)(F)F)C1CCN(S(=O)(=O)Cc2ccccc2)CC1` the survival was inactive: 75%.
`O=C(CC1S/C(=N\N=C2CCCCC2)NC1=O)Nc1ccc(F)cc1` (centres undefined) was tested, and the survival was inactive: 104%.
For `CCc1ccc(C(=O)c2cn(CC(=O)Nc3cc(OC)ccc3OC)c3nc(C)ccc3c2=O)cc1`, the survival was inactive: 123%.
With `C=CCN1CCN(Cc2nnnn2Cc2ccc(OC)cc2)CC1` the survival was inactive: 101%.
With `O=C(CSc1nc2nccnc2c(=O)n1CCc1c[nH]c2ccccc12)Nc1ccccc1` the survival was inactive: 73%.
For `c1ccc2c(c1)CN1CCCC1=N2`, the survival was inactive: 76%.
`COC(=O)c1c(NC(=O)/C(C#N)=C/c2ccc(OC)cc2)sc2c1CCC2` was tested, and the survival was inactive: 154%.
With `O=C(NC1CC(=O)N(c2ccccc2)C1)C(c1ccccc1)c1ccccc1` (centres undefined) the survival was inactive: 89%.
In the case of `Cc1ccc(-n2c(=O)c3sc4ccccc4c3n(C)c2=O)cc1F`, the survival is reported as inactive: 77%.
In the case of `COc1cccc(NC(=O)c2oc3ccccc3c2NC(=O)c2ccc(F)c(F)c2)c1`, the survival is reported as inactive: 57%.
`Cc1cc2nsnc2c(S(=O)(=O)NCC(=O)O)c1C` was tested, and the survival was inactive: 101%.
`CCOc1ccc2c(c1)c(=O)c(C(=O)c1ccc(CC)cc1)cn2CC(=O)Nc1ccccc1OC` was tested, and the survival was inactive: 68%.
For `COc1ccc(OC)c(NC(=O)Cn2c(=O)c3cccn3c3ccccc32)c1`, the survival was active: 41%.
`O=C(Nc1cccc(Cl)c1)C1CCCN(c2nn3cc(-c4ccc(F)cc4)nc3s2)C1` (centres undefined) was tested, and the survival was inactive: 78%.
For `CCn1c(=O)n(-c2ccc3c(c2)OCO3)c2nc(-c3ccc(C(C)C)cc3)nc(C(N)=O)c21`, the survival was inactive: 121%.
`COc1ccc2[nH]c3c(c2c1)CCn1c-3nc2ccccc2c1=O` was tested, and the survival was inactive: 87%.
In the case of `CCOC(=O)C1CCN(C(=O)c2nn(-c3ccc(OC)c(Cl)c3)c(=O)c3c2c2ccccc2n3C)CC1`, the survival is reported as inactive: 76%.
In the case of `Cc1ccc(Cl)cc1NC(=O)CSc1nc2ccccc2c2nc(-c3ccccc3)nn12`, the survival is reported as inactive: 113%.
For `CCOc1ccc(C(=O)Nc2cc(-c3nc4cc(OC)ccc4o3)ccc2C)cc1[N+](=O)[O-]`, the survival was inactive: 62%.
